Among all 110,000 compounds or so, about 230 (0.21%) showed an effect of 50% or more. The list shows a part of the results.
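Note: 30 min substrate incubation versus DMSO and 10 µM JCP410 controls.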

The target in the experiment is DPAP1 (Plasmodium falciparum, UniProt Q8IIJ9). Nature of the experiment: primary screen, percent inhibition; read by cleavage of a fluorogenic dipeptide substrate; higher = more effect of the substance. Further details: species or system P. falciparum D10 trophozoite lysates; single well.
Chain of DPAP1 (Q8IIJ9 whole entry, looked up): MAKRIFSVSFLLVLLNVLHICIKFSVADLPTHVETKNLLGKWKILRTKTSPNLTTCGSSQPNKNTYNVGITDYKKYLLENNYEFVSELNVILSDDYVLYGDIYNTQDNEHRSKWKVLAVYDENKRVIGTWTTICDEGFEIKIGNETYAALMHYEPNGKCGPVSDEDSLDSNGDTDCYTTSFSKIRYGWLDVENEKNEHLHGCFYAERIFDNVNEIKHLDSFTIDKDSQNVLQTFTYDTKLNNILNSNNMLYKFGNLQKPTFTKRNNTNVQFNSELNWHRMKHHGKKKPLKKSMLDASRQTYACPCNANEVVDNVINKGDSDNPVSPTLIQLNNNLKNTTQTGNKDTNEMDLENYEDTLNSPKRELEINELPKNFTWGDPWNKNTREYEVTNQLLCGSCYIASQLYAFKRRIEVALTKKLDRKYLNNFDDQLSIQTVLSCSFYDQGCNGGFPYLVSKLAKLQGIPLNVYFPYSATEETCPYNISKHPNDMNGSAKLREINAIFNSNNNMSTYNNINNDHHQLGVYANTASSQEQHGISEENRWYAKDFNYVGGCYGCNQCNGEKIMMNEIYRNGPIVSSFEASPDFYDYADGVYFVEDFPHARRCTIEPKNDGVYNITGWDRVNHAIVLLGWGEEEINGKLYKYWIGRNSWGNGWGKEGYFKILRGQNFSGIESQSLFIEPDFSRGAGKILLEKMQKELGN
On to `Cc1ccccc1C(=O)O/N=C(\c1ccccc1)c1ccccn1`, for which the “% Inhibition @ 10 uM” value is reported as 1.13%.
In the case of `COc1ccc2c(c1)CC/C(=C\c1ccc(F)cc1)C2=O` it was 5.7%; in that of `N#CCNC(=O)[C@H](CCCc1ccccc1)NC(=O)c1ccccc1`, -1.83%; in that of `Cc1cc2c(cc3c(=O)n(CC(=O)NC4CCC(C)CC4)ncn32)s1` (centres unmarked), -1.7%.
`O=C(COc1ccc(Cl)cc1Cl)Nc1ccc(S(=O)(=O)Nc2nccs2)cc1`: the “% Inhibition @ 10 uM” value was found to be 11.5%.
With `CN(C)c1ccc(-n2nc3ccc(NC(=O)c4ccco4)cc3n2)cc1` the figure was -0.171%; with `COc1ccccc1-n1c(S)nnc1-c1nn(C)c(C)c1Cl`, 3.94%; with `CC(=O)Nc1nc2c(s1)CC(c1ccccc1)CC2` (centres unmarked), 2.84%.
In the case of `CCN(CC)c1ccc(Nc2nc(-c3sc(N)nc3C)cs2)cc1` it was 9.57%; in that of `CCS(=O)(=O)c1oc(-c2ccc(F)cc2)nc1S(=O)(=O)c1ccc(Cl)cc1`, 3.54%.
On to `C=CCNC(=O)Nc1cnc2ccc(C)cc2c1O`, for which the “% Inhibition @ 10 uM” value came out at 5.43%.
As to `COc1nc(-c2ccccc2)cc(-c2ccc(C)cc2)n1`, the “% Inhibition @ 10 uM” value was determined as 1.8%.
In the case of `O=C(Nc1ccc(F)cc1Cl)c1cc2ccccc2o1`, the “% Inhibition @ 10 uM” value is -0.865%.
In the case of `Cc1nc2c(-c3ccc(Cl)cc3)c(C)nn2c(O)c1Cl` it was 3.61%; in that of `Cc1[nH]nc2c1C(c1ccc(COc3cccc(Br)c3)o1)C(C#N)=C(N)O2` (centres unmarked), -0.105%; in that of `CC1Oc2ccccc2OC1C(=O)NCc1ccccc1` (centres unmarked), -3.4%.
On to `COc1ccc(OC)c(C2=NOC(C(=O)N3CCC4(CC3)OCCO4)C2)c1` (centres unmarked), for which the “% Inhibition @ 10 uM” value was 2.85%.
Turning to `OC1CCN(Cc2ccc(F)cc2F)CC1`, the “% Inhibition @ 10 uM” value is recorded as -0.828%.
In the case of `CCN(CC)S(=O)(=O)c1cccc(C(=O)Nc2ccc(OC)cc2)c1` it was 3.25%; in that of `COc1ccc(CNc2nc(-c3cccnc3)nn2S(=O)(=O)c2ccccc2)cc1`, 3.81%; in that of `COc1ccccc1C(=O)n1nc(-c2cccnc2)nc1NCc1ccco1`, -4.75%.
In the case of `CCc1ccc2cc(-c3ccc(F)cc3)cn2c1` it was -0.105%; in that of `COc1ccc(CCNC(=O)CSc2ncnc3sc(C)c(C)c23)cc1`, -2.09%.
In the case of `CCOc1ccccc1C1C2=C(O)CCCC2=Nc2nc(-c3cccc(Cl)c3)nn21` (centres unmarked) it was 5.17%.
Take `CC(C)Oc1ccc(C(=O)NCCNC(=O)c2nonc2N)cc1`: the “% Inhibition @ 10 uM” value was determined as 1.72%.
With `O=C(CCn1ccc2cc(S(=O)(=O)N3CCCCC3)ccc21)NCc1ccco1` the figure was 8.75%.
For `COc1ccc(-c2cn3nc(N4CCC(C(=O)NCCCN5CCN(C)CC5)CC4)sc3n2)cc1`, the “% Inhibition @ 10 uM” value is given as 0.434%.
As for `Cc1ccc(-c2nnc(N)s2)cc1`, the “% Inhibition @ 10 uM” value worked out at 2.54%.
In the case of `Cn1nccc1C(=O)N1CCc2ccccc21` it was 1.67%.
